Experimental data published in PMC12040169 (PLOS Biology, 2025).
The other results are listed elsewhere or left out.

Test system: T1, C. trachomatis L2/434/Bu expressing GFP (CTL2-GFP)
T1 construct: L2/434/Bu GFP intracellular growth in HeLa cells
Design: species or system HeLa; C. trachomatis total inclusion area by high-content imaging, normalised to DMSO
Conditions: total inclusion area; 28.5 h, 10 µM; inhibitor
Method in brief: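 Post-fluorescence-read fixation, DNA staining with Hoechst and high-content imaging; GFP inclusion area and number per well, and nuclei counts, used as proxies for bacterial growth and host viability.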

| SMILES | % of control remaining |
| --- | --- |
| CCc1c(C)sc(NC(=O)c2ccc(Br)o2)c1C#N [CBK021662] | 76.9766 |
| N#Cc1cnccc1N1CC2COCCC2(C(=O)N2CCCC2)C1 (stereo not drawn) [CBK304731] | 51.5213 |
| O=C1NC2(CCN(C(=O)c3ccccc3F)CC2)Oc2ccccc21 [CBK283997] | 78.1362 |
| CCOc1ccc(S(=O)(=O)NC(C)C(=O)O)cc1C (stereo not drawn) [CBK270178] | 95.1522 |
| FC(F)(F)Oc1ccc(-c2c[nH]c([C@@H]3COCCN3C3CCNCC3)n2)cc1 [CBK289312] | 85.8023 |
| CCn1c(=O)n(CC(=O)N2CCCCC2C)c2cccnc21 (stereo not drawn) [CBK283896] | 74.5081 |
| COc1ccc(S(=O)(=O)N2CCN(CCN3C(=O)c4cccc5cccc(c45)C3=O)CC2)cc1[N+](=O)[O-] [CBK263301] | 97.2926 |
| COc1ccc2cc3c(nc2c1)Sc1nncn1N=C3 [CBK021248] | 96.8415 |
| Cc1cc(=O)n(CC(=O)NC(Cc2ccncc2)[C@H]2C[C@H](O)C2)nc1C (stereo partly drawn) [CBK306641] | 64.9948 |
| O=C(c1cc(F)c(F)cc1F)N1CCC2(CCN(CCN3CCOCC3)C2)C1 (stereo not drawn) [CBK132145C] | 114.557 |
| Cc1cnccc1-c1c[nH]nc1C1CCCN1C(=O)c1ccccc1 (stereo not drawn) [CBK285499] | 70.8172 |
| C(=N\c1ccc(Cc2ccc(/N=C/c3ccc[nH]3)cc2)cc1)/c1ccc[nH]1 [CBK261282] | 86.8797 |
| Cc1c[nH]c(CN(C)C(=O)c2cccc(NC(=O)C3CCCC3)c2)n1 [CBK307282] | 47.1507 |
| O=C(CC1S\C(=N/N=C/C=C/c2ccccc2)N=C1O)Nc1ccc(C(=O)O)cc1 (stereo not drawn) [CBK263711] | 107.855 |
| Cc1occc1-c1nnc(SCC(=O)c2ccc3c(c2)OCCO3)o1 [CBK268773] | 100.128 |
| Cc1ccc(S(=O)(=O)N2CCOCC2)cc1C(=O)O [CBK262256] | 91.181 |
| Cc1noc(-c2cn(C)nc2C2CCCCN2C(=O)C2CC2)c1C (stereo not drawn) [CBK283410] | 99.7543 |
| CN(C)S(=O)(=O)N(CC(=O)Nc1ccc2c(c1)OCO2)c1ccccc1 [CBK268481] | 74.7103 |
| Cc1ccc(C(=O)O)cc1S(=O)(=O)NCCCO [CBK267171] | 77.0072 |
| O=C(O)CC1COCCN1Cc1ccc(Cn2cccn2)cc1 (stereo not drawn) [CBK306827] | 68.6807 |
| Cc1cc(C)nc(N2CCN(C(=O)CCC(=O)NCc3cccc(C(F)(F)F)c3)CC2)n1 [CBK022261] | 82.1417 |
| CC(=O)N1c2ccc(-c3cc4ccccn4c3)cc2CC1C (stereo not drawn) [CBK285254] | 109.866 |
| CCC(C(=O)N1CCC(C(=O)c2cccnc2)CC1)c1ccccc1 (stereo not drawn) [CBK283525] | 99.4174 |
| Oc1cc(C(F)(F)F)nc(NCc2ccc3ccccc3c2)n1 [CBK003459] | 73.8749 |
| CC(O)CNCCCOc1ccccc1-c1ccccc1 (stereo not drawn) [CBK268633G] | 135.423 |
| CC(C)(C)c1nc(-c2ccccc2)c2ccccn12 [CBK149256] | 76.8943 |

| SMILES | % of control remaining |
| --- | --- |
| O=C(c1ccc2[nH]c(=O)[nH]c2c1)N1CCC(Cn2cncn2)(C2CCCCC2)CC1 [CBK136824] | 97.2375 |
| COc1cccc(-c2nnnn2[C@H]2CO[C@H]3[C@@H]2OC[C@@H]3NC(=O)c2ccc(C)cc2)c1 [CBK289512] | 89.5538 |
| O=c1[nH]c(SCc2n[nH]c(=S)n2-c2ccccc2)nc2sc3c(c12)CCCC3 [CBK300538] | 119.231 |
| COc1cccc(-c2nc(-c3ccc4[nH]c(=O)[nH]c4c3)cs2)c1OC [CBK298271] | 92.7241 |
| Cc1cc(OCC(=O)N2CCN(c3ccccc3F)CC2)no1 [CBK305898] | 66.1246 |
| N#CC1CCCc2c1[nH]c1ccc(Br)cc21 (stereo not drawn) [CBK026475] | 34.8929 |
| c1ccc(Cn2cc(-c3cnc(N4CCOCC4)c4nccn34)cn2)cc1 [CBK091289] | 109.244 |
| C=CCn1ncc(CN2CCC3(O)CCCCC3C2)c1C (stereo not drawn) [CBK283029] | 103.502 |
| Cc1ccc2c(c1)C1(CC(=O)N(C)C1=O)C(=O)N2CCOc1cccc2c1OCCO2 (stereo not drawn) [CBK075529] | 96.2191 |
| CN1CCN(c2ccc(-c3cncc(NCCc4ccccn4)n3)cn2)CC1 [CBK037135] | 97.2766 |
| COc1ccccc1NC(=O)N1C[C@@H]2C[C@H](C1)c1c(-c3cccc(C#N)c3)ccc(=O)n1C2 [CBK289197] | 93.6807 |
| COc1cccc(CCN(Cc2ccc(S(=O)(=O)N3CCOC3=O)cc2)Cc2cccc(OCCO)c2)c1 [CBK014806] | 129.854 |
| C/C(=N\NC(N)=S)C(=O)O [CBK261575] | 64.1996 |
| CC(C)c1ccc(S(=O)(=O)NCCc2ccccc2)cc1 [CBK044426] | 96.812 |
| O=C(O)c1ccc(N2N=C(c3ccccc3)/C(=C\c3cccc([N+](=O)[O-])c3O)C2=O)cc1 [CBK265615] | 101.833 |
| COc1ccc(CN2CCCc3c(C)nc(C4CCCN(C(=O)C5CCC5)C4)nc32)cc1 (stereo not drawn) [CBK286117] | 72.535 |
| O=c1ccc(O)nn1CN1CCN(Cc2ccccc2)CC1 [CBK265539] | 97.5913 |
| NC(=O)C1(N2CCCCC2)CCN(C(=S)Nc2ccc(F)c(Cl)c2)CC1 [CBK267165] | 118.447 |
| CC(C)CN1CCC(NC(=O)c2csc(-c3cnn(C)c3)n2)CC1 [CBK305790] | 34.1656 |
| COc1cccc(-c2nn(CCC#N)cc2C(=O)N2CCCCC2)c1 [CBK305942] | 41.4015 |
| OCC1CCCN1c1nccnc1-c1cccs1 (stereo not drawn) [CBK089060] | 87.2587 |
| O=C(Oc1ccc(/C=N/c2ccc(-c3nc4ccccc4s3)c(O)c2)cc1)c1ccc(Cl)cc1 [CBK261234] | 104.348 |
| CC(C)(C)c1nnc2sc(-c3cccnc3)nn12 [CBK287289] | 71.5591 |
| Cc1c(C)c2c(O)n(-c3ccccc3)nc2[nH]c1=O [CBK287891] | 92.147 |
| Cc1cc(C)cc(N(C(C)C(=O)N2CCN(Cc3ccc4c(c3)OCO4)CC2)S(C)(=O)=O)c1 (stereo not drawn) [CBK269060] | 109.153 |
| COc1ccc(Oc2cncc(OC3CCN(CC4CCCCC4)C3)n2)cc1OC (stereo not drawn) [CBK084413] | 83.5683 |

| SMILES | % of control remaining |
| --- | --- |
| CCOc1ccc(S(=O)(=O)N2CCN(Cc3cc(F)c(F)c(F)c3)CC2)c2cccnc12 [CBK062795] | 64.2943 |
| CCCc1onc(S(=O)(=O)c2ccc(C)cc2)c1NC [CBK020322] | 105.527 |
| O=C(c1cc2c(s1)CCC2)N1CCn2c(nnc2C2CC2)C1 [CBK283770] | 86.0052 |
| CCc1nnc(SCC(=O)Nc2cc(OC)ccc2OC)[nH]1 [CBK270167] | 93.8603 |
| NS(=O)(=O)c1ccc(Cn2c(=O)[nH]c3ncc(-c4ccco4)nc32)cc1 [CBK064948] | 105.865 |
| c1cncc(-c2noc(-c3cc(C4CC4)[nH]n3)n2)c1 [CBK287973] | 91.7419 |
| Cc1noc(C)c1C(=O)N1CCCC(c2nc(C)n3ccsc23)C1 (stereo not drawn) [CBK285211] | 71.7195 |
| COc1cc(C2C(C(=O)c3ccc(C)o3)=C(O)C(=O)N2Cc2cccnc2)cc(OC)c1OC (stereo not drawn) [CBK264933] | 90.7952 |
| O=C(NCC1(c2ccccc2)CCOCC1)c1ccno1 [CBK067408] | 44.3245 |
| O=C(O)c1ccccc1NC(=S)NC(=O)c1ccccc1[N+](=O)[O-] [CBK264963] | 110.485 |
| C=C(C)Cn1c(SCC(=O)O)nnc1-c1ccc([N+](=O)[O-])cc1 [CBK263159] | 102.283 |
| CCN(CC)C(=O)C1C2CCC3(CC(=O)c4ccccc4O3)C21 (stereo not drawn) [CBK284923] | 56.7226 |
| Cn1c(=O)[nH]c(=O)c2[nH]c(CN3CCN(Cc4ccccc4)CC3)nc21 [CBK269592] | 66.056 |
| CS(=O)(=O)N(Cc1ccccc1)c1ccc(C(=O)Nc2ccc3c(c2)OCO3)cc1 [CBK033562] | 95.1457 |
| O=C1CC2(CCN(S(=O)(=O)c3ccc(F)cc3)CC2)CN1 [CBK283353] | 106.907 |
| CC(=O)Cn1c(CN2CCOCC2)nc2c1c(=O)n(C)c(=O)n2C [CBK269508] | 96.0299 |
| Cc1csc(C2CN(Cc3cn(C)c(=O)n(C)c3=O)CCO2)n1 (stereo not drawn) [CBK305475] | 83.6 |
| CN1CCN(c2nc(Nc3ccc(Cl)cc3)nc(Oc3ccccc3)n2)CC1 [CBK004778] | 75.89 |
| O=C(c1ccccc1)c1ccc2[nH]c(-c3ccc(NC(=O)c4ccccc4Cl)cc3)nc2c1 [CBK262706] | 68.0241 |
| OC1(c2cccnc2F)CCN(Cc2ccccc2F)CC1 [CBK284372] | 81.2204 |
| O=C(CN1CCCC1c1cccs1)Nc1cccc(C(=O)NC2CC2)c1 (stereo not drawn) [CBK305895] | 41.3886 |
| CCN(CC(C)C#N)C(=O)c1cc2ccccc2oc1=O (stereo not drawn) [CBK305992] | 88.0058 |
| O=C(O)COc1ccccc1/C=N/n1c(S)nnc1-c1ccc(Cl)cc1Cl [CBK264418] | 110.867 |
| Cc1nnc(N2CCN(Cc3sccc3Cl)CC2)nc1C [CBK304075] | 49.8581 |
| NC1=C(c2ccccc2)C(=O)CN1NC(=O)COc1ccccc1-c1ccccc1 [CBK269258] | 85.7091 |
| COC(=O)C[C@@H](C)NC(=O)[C@](OC)(c1ccccc1)C(F)(F)F [CBK017864] | 112.034 |
